The inconclusive results got no clear call from the source; some entries with a clear call stand among them for comparison. Potencies beside an inconclusive call are fits to weak or partial responses and may not hold up. The source made the active and inactive calls. The call rests on the fitted dose curve; in most records, active means well fitted cell-killing curve with a large enough effect; inconclusive means small, poorly fitted or top-dose-only effect; inactive means flat fitted curve, though single readings scatter.
Assay: qHTS of pediatric cancer cell lines to identify multiple opportunities for drug repurposing: Primary screen for DAOY cells (AID 1347090); further: nearly all actives have a fitted effect of over 55% in size
Settings: DAOY medulloblastoma viability, CellTiter-Glo luminescence, 48 h; series mostly up to 46 µM
Method in brief: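 Viability measured as metabolically active cells via CellTiter-Glo luminescence following 48 hours of compound exposure, 11-point dilutions in confirmatory testing. 500-1,000 cells/well plated 5 hours before dosing; controls were DMSO and 2.3 µM bortezomib.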
Potency means the concentration at half of the fitted maximal effect; tags describe the fitted curve by direction and shape.

Structure (SMILES)	Potency
COc1ccc2[nH]cc(CCNC(C)=O)c2c1	inconclusive: 29.6 µM [cytotoxic, single point]
CC1(C)O[C@H]2CC(=O)OC[C@]23[C@H]2CC[C@@]4(C)[C@H](c5ccoc5)OC(=O)[C@H]5O[C@]54[C@]2(C)C(=O)C[C@@H]13	inactive
CCN(CC)CCOc1ccc(Nc2ncc3cc(-c4c(Cl)cccc4Cl)c(=O)n(C)c3n2)cc1	active: 0.187 µM
Cn1cc(C[C@@H](N)C(=O)O)c2ccccc21	inactive
N=C(N)c1ccc2cc(OC(=O)c3ccc(N=C(N)N)cc3)ccc2c1	inactive
CN(C(=O)c1ccc(F)cc1C(F)(F)F)C1CCN(c2nnc(-c3ccnn3C)c3ccccc23)CC1	inconclusive: 23.5 µM [cytotoxic, partial curve]
Cc1cc(C(C)(C)C)cc(C)c1CC1=NCCN1	inactive
Oc1ccc([C@@H]2Oc3ccc(O)cc3[C@@H]3CCC[C@@H]32)cc1	inconclusive: 11.8 µM [cytotoxic, partial curve]
COc1cc(Nc2ncc3c(n2)-c2ccc(Cl)cc2C(c2c(F)cccc2OC)=NC3)ccc1C(=O)O	inconclusive: 0.0148 µM [cytotoxic, full curve, poor fit]
CC(C)[C@H](O)C(=O)N[C@@H](C)C(=O)N[C@@H]1C(=O)N(C)CCc2ccccc21	inconclusive: 14.8 µM [cytotoxic, partial curve]
CCOc1ccccc1OCCNC(C)Cc1ccc(OC)c(S(N)(=O)=O)c1 (configuration not stated)	inactive
CN(C)CCCC1(c2ccc(F)cc2)OCc2cc(C#N)ccc21 (configuration not stated)	inconclusive: 23.5 µM [cytotoxic, partial curve]
